Substitutions are numbered along the chain they refer to; changes in the protein carry UniProt numbers. The list shows a part of the results.
T1: RBFOX1 RRM RbFoxmut (Fox-RRM*) (Homo sapiens, UniProt Q9NWB1 109-208, R118D;E147R;N151S;E152T)
T1 sequence: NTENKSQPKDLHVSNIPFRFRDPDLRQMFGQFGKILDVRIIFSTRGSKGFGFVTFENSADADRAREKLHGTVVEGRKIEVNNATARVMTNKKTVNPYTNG

B1: UUAUCGG (DNA:RNA)
RNA: GGGAGACCGGAAUUCAGAUUGUCCUUAUCGGUUAAAUCCCGUCGUAGCCACCA
DNA 1: CAATCTGAATTCCGGTCTCCC
DNA 2: TGGTGGCTACGACGGGATT
B2: UCACGGG (DNA:RNA)
RNA: B1 RNA with U26C, U28C, C29G
DNA 1: CAATCTGAATTCCGGTCTCCC
DNA 2: TGGTGGCTACGACGGGATT
B3: UACUGGG (DNA:RNA)
RNA: B1 RNA with U26A, A27C, C29G
DNA 1: CAATCTGAATTCCGGTCTCCC
DNA 2: TGGTGGCTACGACGGGATT
B4: GAGAGGA (DNA:RNA)
RNA: B1 RNA with U25G, U26A, A27G, U28A, C29G, G31A
DNA 1: CAATCTGAATTCCGGTCTCCC
DNA 2: TGGTGGCTACGACGGGATT
B5: CCCGUUC (DNA:RNA)
RNA: GGGAGACCGGAAUUCAGAUUGUCCCCCGUUCUUAAAUCCCGUCGUAGCCACCA
DNA 1: CAATCTGAATTCCGGTCTCCC
DNA 2: TGGTGGCTACGACGGGATT
B6: AGAACGC (DNA:RNA)
RNA: B1 RNA with U25A, U26G, U28A, G31C
DNA 1: CAATCTGAATTCCGGTCTCCC
DNA 2: TGGTGGCTACGACGGGATT
B7: CCGAACA (DNA:RNA)
RNA: B5 RNA with C27G, G28A, U29A, U30C, C31A
DNA 1: CAATCTGAATTCCGGTCTCCC
DNA 2: TGGTGGCTACGACGGGATT
B8: CUCGGUG (DNA:RNA)
RNA: B5 RNA with C26U, U29G, C31G
DNA 1: CAATCTGAATTCCGGTCTCCC
DNA 2: TGGTGGCTACGACGGGATT
B9: GUUAUGA (DNA:RNA)
RNA: B1 RNA with U25G, A27U, U28A, C29U, G31A
DNA 1: CAATCTGAATTCCGGTCTCCC
DNA 2: TGGTGGCTACGACGGGATT
B10: GUAGCCA (DNA:RNA)
RNA: B1 RNA with U25G, U28G, G30C, G31A
DNA 1: CAATCTGAATTCCGGTCTCCC
DNA 2: TGGTGGCTACGACGGGATT
B11: AAGGAAC (DNA:RNA)
RNA: B5 RNA with C25A, C26A, C27G, U29A, U30A
DNA 1: CAATCTGAATTCCGGTCTCCC
DNA 2: TGGTGGCTACGACGGGATT
B12: UUCCUUA (DNA:RNA)
RNA: B5 RNA with C25U, C26U, G28C, C31A
DNA 1: CAATCTGAATTCCGGTCTCCC
DNA 2: TGGTGGCTACGACGGGATT
B13: CAUAUAC (DNA:RNA)
RNA: B5 RNA with C26A, C27U, G28A, U30A
DNA 1: CAATCTGAATTCCGGTCTCCC
DNA 2: TGGTGGCTACGACGGGATT
B14: UGCCAGG (DNA:RNA)
RNA: B1 RNA with U26G, A27C, U28C, C29A
DNA 1: CAATCTGAATTCCGGTCTCCC
DNA 2: TGGTGGCTACGACGGGATT
B15: GGAGAAU (DNA:RNA)
RNA: B5 RNA with C25G, C26G, C27A, U29A, U30A, C31U
DNA 1: CAATCTGAATTCCGGTCTCCC
DNA 2: TGGTGGCTACGACGGGATT
B16: CCAUUUG (DNA:RNA)
RNA: B5 RNA with C27A, G28U, C31G
DNA 1: CAATCTGAATTCCGGTCTCCC
DNA 2: TGGTGGCTACGACGGGATT
B17: ACCUGAG (DNA:RNA)
RNA: B5 RNA with C25A, G28U, U29G, U30A, C31G
DNA 1: CAATCTGAATTCCGGTCTCCC
DNA 2: TGGTGGCTACGACGGGATT
B18: UCCCCGU (DNA:RNA)
RNA: B1 RNA with U26C, A27C, U28C, G31U
DNA 1: CAATCTGAATTCCGGTCTCCC
DNA 2: TGGTGGCTACGACGGGATT
B19: CGUCACU (DNA:RNA)
RNA: B5 RNA with C26G, C27U, G28C, U29A, U30C, C31U
DNA 1: CAATCTGAATTCCGGTCTCCC
DNA 2: TGGTGGCTACGACGGGATT
B20: UGGUAGG (DNA:RNA)
RNA: B1 RNA with U26G, A27G, C29A
DNA 1: CAATCTGAATTCCGGTCTCCC
DNA 2: TGGTGGCTACGACGGGATT
B21: CAGGGCU (DNA:RNA)
RNA: B5 RNA with C26A, C27G, U29G, U30C, C31U
DNA 1: CAATCTGAATTCCGGTCTCCC
DNA 2: TGGTGGCTACGACGGGATT
B22: CCUCAAA (DNA:RNA)
RNA: B5 RNA with C27U, G28C, U29A, U30A, C31A
DNA 1: CAATCTGAATTCCGGTCTCCC
DNA 2: TGGTGGCTACGACGGGATT
B23: AGCUUCA (DNA:RNA)
RNA: B5 RNA with C25A, C26G, G28U, U30C, C31A
DNA 1: CAATCTGAATTCCGGTCTCCC
DNA 2: TGGTGGCTACGACGGGATT
B24: UAUUUGC (DNA:RNA)
RNA: B1 RNA with U26A, A27U, C29U, G31C
DNA 1: CAATCTGAATTCCGGTCTCCC
DNA 2: TGGTGGCTACGACGGGATT
B25: GUCUAAU (DNA:RNA)
RNA: B1 RNA with U25G, A27C, C29A, G30A, G31U
DNA 1: CAATCTGAATTCCGGTCTCCC
DNA 2: TGGTGGCTACGACGGGATT
B26: UCGGUAU (DNA:RNA)
RNA: B5 RNA with C25U, C27G, U30A, C31U
DNA 1: CAATCTGAATTCCGGTCTCCC
DNA 2: TGGTGGCTACGACGGGATT
B27: AGUCACC (DNA:RNA)
RNA: B5 RNA with C25A, C26G, C27U, G28C, U29A, U30C
DNA 1: CAATCTGAATTCCGGTCTCCC
DNA 2: TGGTGGCTACGACGGGATT
B28: CCUCCUC (DNA:RNA)
RNA: B5 RNA with C27U, G28C, U29C
DNA 1: CAATCTGAATTCCGGTCTCCC
DNA 2: TGGTGGCTACGACGGGATT
B29: CAUUGGG (DNA:RNA)
RNA: B1 RNA with U25C, U26A, A27U, C29G
DNA 1: CAATCTGAATTCCGGTCTCCC
DNA 2: TGGTGGCTACGACGGGATT
B30: GCGUGAC (DNA:RNA)
RNA: B5 RNA with C25G, C27G, G28U, U29G, U30A
DNA 1: CAATCTGAATTCCGGTCTCCC
DNA 2: TGGTGGCTACGACGGGATT
B31: GACCCUC (DNA:RNA)
RNA: B5 RNA with C25G, C26A, G28C, U29C
DNA 1: CAATCTGAATTCCGGTCTCCC
DNA 2: TGGTGGCTACGACGGGATT

target: T1, RBFOX1 RRM RbFoxmut (Fox-RRM*); assay: EMSA; HiTS-Eq, 1 nM pool, 10 min; buffer printed only for the single-RNA assays: 10 mM Tris pH 7.5, 150 mM NaCl, 3.4 mM EDTA, 0.001% NP-40, 30 C; settings: tags: His6 N-terminal (pET28a); label: 5' 32P
In short: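 Purified RbFox RRM, wild type or mutant, was incubated for 10 min in 50 µL with 1 nM of a 5′-radiolabelled RNA pool carrying 7 randomized nucleotides, whose flanks were annealed to DNA oligonucleotides, over a series of increasing protein concentrations. Unbound RNA was resolved on 8% native PAGE, cut out, reverse-transcribed, barcoded by PCR and sequenced on an Illumina HiSeq 2500. Relative association constants were derived from changes in read counts for each RNA species versus the control reaction and normalised to the cognate motif.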

| Binder | binding signal |
| --- | --- |
| B1 | 0.075 KA relative to UGCAUGU |
| B2 | 0.0758 KA relative to UGCAUGU |
| B3 | 0.0764 KA relative to UGCAUGU |
| B4 | 0.0596 KA relative to UGCAUGU |
| B5 | 0.0759 KA relative to UGCAUGU |
| B6 | 0.0935 KA relative to UGCAUGU |
| B7 | 0.0887 KA relative to UGCAUGU |
| B8 | 0.115 KA relative to UGCAUGU |
| B9 | 0.206 KA relative to UGCAUGU |
| B10 | 0.082 KA relative to UGCAUGU |
| B11 | 0.057 KA relative to UGCAUGU |
| B12 | 0.0974 KA relative to UGCAUGU |
| B13 | 0.105 KA relative to UGCAUGU |
| B14 | 0.0858 KA relative to UGCAUGU |
| B15 | 0.0906 KA relative to UGCAUGU |
| B16 | 0.0952 KA relative to UGCAUGU |

| Binder | binding signal |
| --- | --- |
| B17 | 0.0813 KA relative to UGCAUGU |
| B18 | 0.104 KA relative to UGCAUGU |
| B19 | 0.0853 KA relative to UGCAUGU |
| B20 | 0.103 KA relative to UGCAUGU |
| B21 | 0.0959 KA relative to UGCAUGU |
| B22 | 0.0862 KA relative to UGCAUGU |
| B23 | 0.121 KA relative to UGCAUGU |
| B24 | 0.127 KA relative to UGCAUGU |
| B25 | 0.109 KA relative to UGCAUGU |
| B26 | 0.129 KA relative to UGCAUGU |
| B27 | 0.0525 KA relative to UGCAUGU |
| B28 | 0.0903 KA relative to UGCAUGU |
| B29 | 0.067 KA relative to UGCAUGU |
| B30 | 0.09 KA relative to UGCAUGU |
| B31 | 0.0597 KA relative to UGCAUGU |

From publication PMC9911399, “Two distinct binding modes provide the RNA-binding protein RbFox with extraordinary sequence specificity”
